Experimental data published in the supplement of paper PMC8728848.
Some of the results follow.

How the values were obtained:
Test in all cases: glycan array binding signal (z-score within array); higher = stronger binding
Conditions in all cases: glycan notation: IUPAC condensed, linker removed
[1] = target: Fuc(a1-2)Gal6S(b1-3)GlcNAc
How it was run: (§1)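 The binding signal is a Z-score computed within each array and averaged over linkers. Arrays of the same protein sequence at different concentrations or buffers were also averaged together. Data originate from 3228 arrays in the Consortium for Functional Glycomics database, kept only where the protein sequence was available.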

[2] = target: Fuc(a1-2)Gal6S(b1-3)GlcNAc6S
How it was run: as §1

Fuc(a1-2)Gal6S(b1-4)Glc = target: Fuc(a1-2)Gal6S(b1-4)Glc
How it was run: as §1

[3] = target: Fuc(a1-2)Gal6S(b1-4)Glc6S
How it was run: as §1

Fuc(a1-2)[Gal(a1-3)]Gal = target: Fuc(a1-2)[Gal(a1-3)]Gal
How it was run: as §1

[4] = target: Fuc(a1-2)[Gal(a1-3)]Gal(b1-3)GalNAc
How it was run: as §1

[5] = target: Fuc(a1-2)[Gal(a1-3)]Gal(b1-3)GalNAc(b1-3)Gal(a1-4)Gal(b1-4)Glc
How it was run: as §1

[6] = target: Fuc(a1-2)[Gal(a1-3)]Gal(b1-3)GlcNAc
How it was run: as §1

[7] = target: Fuc(a1-2)[Gal(a1-3)]Gal(b1-3)GlcNAc(b1-2)Man(a1-3)[Fuc(a1-2)[Gal(a1-3)]Gal(b1-3)GlcNAc(b1-2)Man(a1-6)]Man(b1-4)GlcNAc(b1-4)GlcNAc
How it was run: as §1

[8] = target: Fuc(a1-2)[Gal(a1-3)]Gal(b1-3)GlcNAc(b1-2)Man(a1-3)[Fuc(a1-2)[Gal(a1-3)]Gal(b1-3)GlcNAc(b1-2)Man(a1-6)]Man(b1-4)GlcNAc(b1-4)[Fuc(a1-6)]GlcNAc
How it was run: as §1

[9] = target: Fuc(a1-2)[Gal(a1-3)]Gal(b1-3)GlcNAc(b1-3)GalNAc
How it was run: as §1

[10] = target: Fuc(a1-2)[Gal(a1-3)]Gal(b1-3)GlcNAc(b1-6)GalNAc
How it was run: as §1

[11] = target: Fuc(a1-2)[Gal(a1-3)]Gal(b1-4)Glc
How it was run: as §1

[12] = target: Fuc(a1-2)[Gal(a1-3)]Gal(b1-4)GlcNAc
How it was run: as §1

[13] = target: Fuc(a1-2)[Gal(a1-3)]Gal(b1-4)GlcNAc(b1-2)Man
How it was run: as §1

[14] = target: Fuc(a1-2)[Gal(a1-3)]Gal(b1-4)GlcNAc(b1-2)Man(a1-3)[Fuc(a1-2)[Gal(a1-3)]Gal(b1-4)GlcNAc(b1-2)Man(a1-6)]Man(b1-4)GlcNAc(b1-4)GlcNAc
How it was run: as §1

[15] = target: Fuc(a1-2)[Gal(a1-3)]Gal(b1-4)GlcNAc(b1-2)Man(a1-3)[Fuc(a1-2)[Gal(a1-3)]Gal(b1-4)GlcNAc(b1-2)Man(a1-6)]Man(b1-4)GlcNAc(b1-4)[Fuc(a1-6)]GlcNAc
How it was run: as §1

[16] = target: Fuc(a1-2)[Gal(a1-3)]Gal(b1-4)GlcNAc(b1-3)GalNAc
How it was run: as §1

[17] = target: Fuc(a1-2)[Gal(a1-3)]Gal(b1-4)GlcNAc(b1-6)GalNAc
How it was run: as §1

[18] = target: Fuc(a1-2)[Gal(a1-3)]Gal(b1-4)[Fuc(a1-3)]Glc
How it was run: as §1

[19] = target: Fuc(a1-2)[Gal(a1-3)]Gal(b1-4)[Fuc(a1-3)]GlcNAc
How it was run: as §1

[20] = target: Fuc(a1-2)[Gal(a1-3)]Gal(b1-4)[Fuc(a1-3)]GlcNAc(b1-3)GalNAc
How it was run: as §1

[21] = target: Fuc(a1-2)[Gal(a1-4)]Gal(b1-4)GlcNAc
How it was run: as §1

[22] = target: Fuc(a1-2)[GalNAc(a1-3)]Gal
How it was run: as §1

[23] = target: Fuc(a1-2)[GalNAc(a1-3)]Gal(b1-3)GalNAc(a1-3)[Fuc(a1-2)]Gal(b1-4)GlcNAc
How it was run: as §1

[24] = target: Fuc(a1-2)[GalNAc(a1-3)]Gal(b1-3)GalNAc(b1-3)Gal(a1-4)Gal(b1-4)Glc
How it was run: as §1

[25] = target: Fuc(a1-2)[GalNAc(a1-3)]Gal(b1-3)GlcNAc
How it was run: as §1

[26] = target: Fuc(a1-2)[GalNAc(a1-3)]Gal(b1-3)GlcNAc(b1-2)Man(a1-3)[Fuc(a1-2)[GalNAc(a1-3)]Gal(b1-3)GlcNAc(b1-2)Man(a1-6)]Man(b1-4)GlcNAc(b1-4)GlcNAc
How it was run: as §1

[27] = target: Fuc(a1-2)[GalNAc(a1-3)]Gal(b1-3)GlcNAc(b1-2)Man(a1-3)[Fuc(a1-2)[GalNAc(a1-3)]Gal(b1-3)GlcNAc(b1-2)Man(a1-6)]Man(b1-4)GlcNAc(b1-4)[Fuc(a1-6)]GlcNAc
How it was run: as §1

[28] = target: Fuc(a1-2)[GalNAc(a1-3)]Gal(b1-3)GlcNAc(b1-3)GalNAc
How it was run: as §1

[29] = target: Fuc(a1-2)[GalNAc(a1-3)]Gal(b1-3)GlcNAc(b1-6)GalNAc
How it was run: as §1

[30] = target: Fuc(a1-2)[GalNAc(a1-3)]Gal(b1-4)Glc
How it was run: as §1

[31] = target: Fuc(a1-2)[GalNAc(a1-3)]Gal(b1-4)GlcNAc
How it was run: as §1

[32] = target: Fuc(a1-2)[GalNAc(a1-3)]Gal(b1-4)GlcNAc(b1-2)Man
How it was run: as §1

[33] = target: Fuc(a1-2)[GalNAc(a1-3)]Gal(b1-4)GlcNAc(b1-2)Man(a1-3)[Fuc(a1-2)[GalNAc(a1-3)]Gal(b1-4)GlcNAc(b1-2)Man(a1-6)]Man(b1-4)GlcNAc(b1-4)GlcNAc
How it was run: as §1

[34] = target: Fuc(a1-2)[GalNAc(a1-3)]Gal(b1-4)GlcNAc(b1-2)Man(a1-3)[Fuc(a1-2)[GalNAc(a1-3)]Gal(b1-4)GlcNAc(b1-2)Man(a1-6)]Man(b1-4)GlcNAc(b1-4)[Fuc(a1-6)]GlcNAc
How it was run: as §1

[35] = target: Fuc(a1-2)[GalNAc(a1-3)]Gal(b1-4)GlcNAc(b1-3)Gal(b1-4)GlcNAc
How it was run: as §1

[36] = target: Fuc(a1-2)[GalNAc(a1-3)]Gal(b1-4)GlcNAc(b1-3)Gal(b1-4)GlcNAc(b1-3)Gal(b1-4)GlcNAc
How it was run: as §1

[37] = target: Fuc(a1-2)[GalNAc(a1-3)]Gal(b1-4)GlcNAc(b1-3)GalNAc
How it was run: as §1

[38] = target: Fuc(a1-2)[GalNAc(a1-3)]Gal(b1-4)GlcNAc(b1-3)[Fuc(a1-2)[GalNAc(a1-3)]Gal(b1-4)GlcNAc(b1-6)]GalNAc
How it was run: as §1

[39] = target: Fuc(a1-2)[GalNAc(a1-3)]Gal(b1-4)GlcNAc(b1-6)GalNAc
How it was run: as §1

[40] = target: Fuc(a1-2)[GalNAc(a1-3)]Gal(b1-4)[Fuc(a1-3)]GlcNAc
How it was run: as §1

[41] = target: Fuc(a1-2)[GalNAc(a1-3)]Gal(b1-4)[Fuc(a1-3)]GlcNAc(b1-3)GalNAc
How it was run: as §1

[42] = target: Fuc(a1-2)[GalNAc(a1-4)]Gal(b1-4)GlcNAc
How it was run: as §1

[43] = target: Fuc(a1-2)[GalNAc(b1-3)]Gal
How it was run: as §1

B1: ECL (Erythrina cristagalli), Q6YD91 (protein)
chain: VETISFSFSEFEPGNNDLTLQGAAIITQSGVLQLTKINQNGMPAWDSTGRTLYTKPVHIWDMTTGTVASFETRFSFSIEQPYTRPLPADGLVFFMGPTKSKPAQGYGYLGVFNNSKQDNSYQTLAVEFDTFSNPWDPPQVPHIGIDVNSIRSIKTQPFQLDNGQVANVVIKYDASSKILLAVLVYPSSGAIYTIAEIVDVKQVLPEWVDVGLSGATGAQRDAAETHDVYSWSFHASLPETND
[1]
  glycan array binding signal (z-score): -0.436
[2]
  glycan array binding signal (z-score): -0.394
Fuc(a1-2)Gal6S(b1-4)Glc
  glycan array binding signal (z-score): -0.054
[3]
  glycan array binding signal (z-score): -0.077
Fuc(a1-2)[Gal(a1-3)]Gal
  glycan array binding signal (z-score): -0.143
[4]
  glycan array binding signal (z-score): -0.143
[5]
  glycan array binding signal (z-score): -0.247
[6]
  glycan array binding signal (z-score): -0.196
[7]
  glycan array binding signal (z-score): -0.173
[8]
  glycan array binding signal (z-score): -0.182
[9]
  glycan array binding signal (z-score): -0.393
[10]
  glycan array binding signal (z-score): -0.206
[11]
  glycan array binding signal (z-score): -0.141
[12]
  glycan array binding signal (z-score): -0.306
[13]
  glycan array binding signal (z-score): -0.158
[14]
  glycan array binding signal (z-score): -0.175
[15]
  glycan array binding signal (z-score): -0.114
[16]
  glycan array binding signal (z-score): -0.135
[17]
  glycan array binding signal (z-score): 0.01
[18]
  glycan array binding signal (z-score): -0.279
[19]
  glycan array binding signal (z-score): -0.134
[20]
  glycan array binding signal (z-score): 1.39
[21]
  glycan array binding signal (z-score): -0.029
[22]
  glycan array binding signal (z-score): -0.343
[23]
  glycan array binding signal (z-score): -0.127
[24]
  glycan array binding signal (z-score): -0.336
[25]
  glycan array binding signal (z-score): -0.253
[26]
  glycan array binding signal (z-score): -0.293
[27]
  glycan array binding signal (z-score): -0.289
[28]
  glycan array binding signal (z-score): 0.102
[29]
  glycan array binding signal (z-score): -0.435
[30]
  glycan array binding signal (z-score): -0.283
[31]
  glycan array binding signal (z-score): -0.363
[32]
  glycan array binding signal (z-score): -0.227
[33]
  glycan array binding signal (z-score): -0.306
[34]
  glycan array binding signal (z-score): -0.274
[35]
  glycan array binding signal (z-score): -0.259
[36]
  glycan array binding signal (z-score): 0.176
[37]
  glycan array binding signal (z-score): -0.17
[38]
  glycan array binding signal (z-score): -0.356
[39]
  glycan array binding signal (z-score): -0.404
[40]
  glycan array binding signal (z-score): -0.1
[41]
  glycan array binding signal (z-score): 0.775
[42]
  glycan array binding signal (z-score): -0.259
[43]
  glycan array binding signal (z-score): -0.064
